From PubChem BioAssay AID504332 (National Center for Advancing Translational Sciences (NCATS), 2011)
Hit rate of the full screen: of about 350,000 compounds, about 31,000 (8.9%) were called active. The shares of active, inactive and inconclusive entries below differ from those in the screen. Calls follow the shape of the dose curve; as a rule, active = well fitted inhibition curve with a large enough effect; inconclusive = small, poorly fitted or top-dose-only effect; inactive = no such curve, though single readings can be large or run the other way. Where the call is inconclusive, the potency comes from a doubtful curve fit.

target: Histone-lysine N-methyltransferase EHMT2 (Homo sapiens) (UniProt Q96KQ7); experiment: qHTS Assay for Inhibitors of Histone Lysine Methyltransferase G9a; conditions: G9a H3K9 monomethylation, AlphaScreen, 2 h; activity, negative = inhibition: at 59 µM (top of the series) unless noted; also: nearly all actives have a fitted effect of over 75% in size
UniProt Q96KQ7, sequence (Q96KQ7 whole entry, looked up): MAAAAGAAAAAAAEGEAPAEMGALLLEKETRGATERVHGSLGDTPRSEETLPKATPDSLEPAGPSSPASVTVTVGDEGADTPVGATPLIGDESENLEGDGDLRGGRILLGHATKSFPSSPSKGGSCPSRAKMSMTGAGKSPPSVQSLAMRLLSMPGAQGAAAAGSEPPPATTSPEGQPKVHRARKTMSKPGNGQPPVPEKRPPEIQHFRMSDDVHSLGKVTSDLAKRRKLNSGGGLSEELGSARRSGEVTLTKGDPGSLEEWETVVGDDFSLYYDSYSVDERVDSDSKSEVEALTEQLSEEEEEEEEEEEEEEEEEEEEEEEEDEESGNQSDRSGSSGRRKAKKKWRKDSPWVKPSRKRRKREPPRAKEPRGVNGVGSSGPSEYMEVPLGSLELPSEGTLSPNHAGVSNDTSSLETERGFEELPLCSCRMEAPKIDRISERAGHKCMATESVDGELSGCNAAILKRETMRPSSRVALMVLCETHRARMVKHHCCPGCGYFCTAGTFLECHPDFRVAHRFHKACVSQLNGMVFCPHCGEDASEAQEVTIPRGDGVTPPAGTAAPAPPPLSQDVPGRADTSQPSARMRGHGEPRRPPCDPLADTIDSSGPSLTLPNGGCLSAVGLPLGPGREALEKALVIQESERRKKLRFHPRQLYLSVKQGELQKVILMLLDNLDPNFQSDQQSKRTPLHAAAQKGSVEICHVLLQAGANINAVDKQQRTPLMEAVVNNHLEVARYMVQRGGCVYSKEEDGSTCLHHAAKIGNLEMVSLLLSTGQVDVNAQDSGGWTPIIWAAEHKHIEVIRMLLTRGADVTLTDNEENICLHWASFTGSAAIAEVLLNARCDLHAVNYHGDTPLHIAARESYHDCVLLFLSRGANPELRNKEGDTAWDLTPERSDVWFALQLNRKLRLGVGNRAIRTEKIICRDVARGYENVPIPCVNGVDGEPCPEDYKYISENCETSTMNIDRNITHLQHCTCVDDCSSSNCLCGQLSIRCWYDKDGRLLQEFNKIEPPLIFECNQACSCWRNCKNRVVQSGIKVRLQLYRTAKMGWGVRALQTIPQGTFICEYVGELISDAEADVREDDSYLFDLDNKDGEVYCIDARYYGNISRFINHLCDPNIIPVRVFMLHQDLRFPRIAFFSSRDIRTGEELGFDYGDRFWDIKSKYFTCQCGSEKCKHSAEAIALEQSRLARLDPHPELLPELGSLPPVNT
Method in brief: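 Using a bead-based AlphaScreen, monomethylated H3K9 product from 2 h room-temperature reactions (G9a 20 nM, peptide 500 nM, SAM 20 uM) was detected with 0.5 ug/mL rabbit anti-H3K9me1 antibody.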
% is scaled to controls: 0 for no effect and ±100 for the full control effect; potency is read from the fitted curve at half-maximal effect; tags tell the direction and shape of the fitted curve.

Structure (SMILES)	Potency	activity, negative = inhibition
Cc1ccccc1-c1nc2ccccc2[nH]1	inconclusive: 39.8 µM [inhibitor, partial curve, poor fit]	
Cc1c(Br)c(O)c(Br)c(O)c1/C=N/n1c(-c2ccccc2)n[nH]c1=S	active: 0.794 µM	
CCOc1ccc(C2C(C(=O)Nc3ccccc3)=C(C)Nc3nc(-c4ccccc4)nn32)cc1OC (stereo unspecified)	inactive	
CCc1ccc(C2NC(c3ccc(CC)cc3)C([N+](=O)[O-])C(C)(C)C2[N+](=O)[O-])cc1 (stereo unspecified)	inactive	
COc1ccccc1C1/C(=C(/O)c2ccc(OC(C)C)cc2)C(=O)C(=O)N1c1cc(C)on1 (stereo unspecified)	active: 1.26 µM	
O=C(Cn1c(-c2cccs2)cc2ccccc21)N1CCN(c2ccc(Cl)cc2)CC1	inactive	
O=C(CSc1nnc(-c2ccccc2Cl)o1)Oc1ccc(Br)cc1	inconclusive: 39.8 µM [inhibitor, single point]	
CC(C)(C)c1ccc(S(=O)(=O)Nc2cccc(C3OCCCO3)c2)cc1	inconclusive: 1.58 µM [inhibitor, full curve]	
CCOC(=O)c1sc(NC(=O)c2cc3n(n2)C(C(F)(F)F)CC(c2cccs2)N3)c(C(=O)OCC)c1C (stereo unspecified)	inconclusive: 0.891 µM [inhibitor, partial curve, poor fit]	
CN(C)c1ccc(/C=C/c2cc[n+]([O-])cc2)cc1	active: 50.1 µM	
Cc1ccc(CSCCC(=O)NCCc2ccc(Cl)cc2)cc1	inactive	
COc1cc(CN2CCCC(N3CCN(c4ccccc4C)CC3)C2)cc(Cl)c1O (stereo unspecified)	inconclusive: 89.1 µM [inhibitor, single point]	
O=c1c2cnn(-c3ccc(F)cc3)c2ncn1Cc1ccccc1Cl	inactive	
Cc1ccc(Nc2nnns2)cc1	active: 5.62 µM	
O=Cc1coc2c(ccc3ccccc32)c1=O	inconclusive: 63.1 µM [inhibitor, single point]	
COCCNC(=S)N(CCc1c(C)[nH]c2ccc(C)cc12)Cc1ccco1	active: 44.7 µM	
CC1=C(C(=O)OCC(C)C)C2(O)C(=O)c3ccccc3C2(O)N1 (stereo unspecified)	inactive	
COc1cccc(NC(=O)Cn2c(CCC(=O)O)ccc2-c2ccc(C)cc2)c1	inconclusive: 31.6 µM [inhibitor, partial curve, poor fit]	
Cc1sc2ccccc2[n+]1CC(=O)O	inconclusive: 10 µM [inhibitor, partial curve, poor fit]	
COc1ccc(Nc2c(-c3ccc(C)cc3)nc3cnccn23)cc1	active: 50.1 µM	
COc1ccc(S(=O)(=O)N2CCN(c3ccc(F)cc3)CC2)cc1OC	inactive	
COc1cccc(CNC(=O)CCCc2cn(C)c3ccccc23)c1	inconclusive: 100 µM [inhibitor, single point]	
CCc1ccc(N2CC(c3nnc(NC(=O)c4ccco4)s3)CC2=O)cc1 (stereo unspecified)	active: 14.1 µM	
CCOc1cc(NC(=O)c2ccco2)c(OCC)cc1NC(=O)Cc1cccc(OC)c1		inconclusive: -115% [inhibitor]

Structure (SMILES)	Potency	activity, negative = inhibition
COc1ccc(S(=O)(=O)N2CCCC2C(=O)Nn2cnnc2)cc1 (stereo unspecified)	inconclusive: 1 µM [inhibitor, full curve, poor fit]	
C/C(=N\NC(=O)c1nnn(-c2nonc2N)c1CN1CCCCC1)c1ccccc1O	inactive	
COc1ccc([C@H]2[C@H](C(C)=O)N3N=Cc4ccccc4C3C23C(=O)OC(C)(C)OC3=O)cc1 (stereo partly specified)	inconclusive: 31.6 µM [inhibitor, single point]	
Cc1cc(C(=O)CN2CCCC2)c(C)n1-c1ccc(Cl)cc1	active: 50.1 µM	
CC(=O)c1ccc(S(=O)(=O)Nc2ccc(-c3cn4c(C)csc4n3)cc2)cc1	inconclusive: 39.8 µM [inhibitor, single point]	
COc1ccc(C)cc1NC(c1nnc(-c2ccccc2)o1)c1ccc(F)cc1Cl (stereo unspecified)	inconclusive: 7.94 µM [inhibitor, partial curve, poor fit]	
Cc1cc(N2CCCC2)nc2ccc(NC(=S)NC(C)C)cc12	inconclusive: 44.7 µM [inhibitor, partial curve, poor fit]	
CCOc1ccc(C2Nc3cccc4cccc(c34)N2)cc1OC	active: 10 µM	
COc1ccc(NC(=O)CCCn2c(=O)oc3ccccc32)cc1Cl	inactive	
Cc1cc(C(=O)COc2ccccc2Cl)c(C)n1-c1ccc2c(c1)OCO2	inconclusive: 1 µM [inhibitor, partial curve, poor fit]	
S=c1[nH]nc(Cc2cccc3ccccc23)n1-c1ccccc1	inconclusive: 1.41 µM [inhibitor, full curve, poor fit]	
O=C(NC1CC(=O)N(c2ccc(F)cc2)C1)C1CCCC1 (stereo unspecified)	inactive	
Cc1ccc(/C=C/C(=O)NCC2COc3ccccc3O2)o1 (stereo unspecified)	inconclusive: 2.51 µM [inhibitor, full curve, poor fit]	
Cc1c(C(=O)Nc2ccc(F)cc2F)oc2c1-c1nn(Cc3c(F)cccc3Cl)cc1CC2	inactive	
COc1ccc(C(=O)N2CCC(C(=O)N3CCN(Cc4ccccc4)CC3)CC2)cc1	inactive	
O=C1CN(C(=O)c2cc3ccccc3o2)c2ccccc2N1	inconclusive: 39.8 µM [inhibitor, single point]	
CC1CN(C2CCN(S(=O)(=O)Cc3ccccc3)CC2)CC(C)O1 (stereo unspecified)	inconclusive: 2.24 µM [inhibitor, partial curve, poor fit]	
CN(c1ccc(C(=O)NCCSCc2c(F)cccc2Cl)cc1)S(C)(=O)=O	inconclusive: 3.55 µM [inhibitor, full curve, poor fit]	
CCc1cccc(CC)c1NC(=S)NCCc1c(C)[nH]c2ccccc12	active: 44.7 µM	
CCOC(=O)C1CCCN(CC(=O)c2c[nH]c3ccc(C)cc23)C1 (stereo unspecified)	inconclusive: 39.8 µM [inhibitor, single point]	
COC(=O)C1C(=O)C2=C(CC1C)NC(=O)CC2c1ccc(O)c(OC)c1 (stereo unspecified)	inconclusive: 89.1 µM [inhibitor, single point]	
O=C(NN1C(=O)c2ccccc2NC1c1ccc([N+](=O)[O-])o1)c1ccccc1 (stereo unspecified)	inconclusive: 28.2 µM [inhibitor, partial curve, poor fit]	
CC1=C(C(N)=O)C(c2ccc3c(c2)OCO3)n2nc(-c3cccc(C)c3)nc2N1 (stereo unspecified)	active: 0.355 µM	
COc1ccc(O)c(-c2cc(-c3ccc(F)cc3)n[nH]2)c1	inconclusive: 89.1 µM [inhibitor, single point]	

Structure (SMILES)	Potency	activity, negative = inhibition
Cc1cc(C)c(S(=O)(=O)N2CCCCC2CCNC(=O)C(=O)NC2CC2)c(C)c1 (stereo unspecified)		inactive: -20.7% [at 2.33 µM]
CC(=O)c1ccc(OCc2cc(C(=O)N(C)C(C)c3nccs3)no2)cc1 (stereo unspecified)		inactive: -2.13% [at 12.7 µM]
O=C(NC1CCCC1)c1cccnc1N1CCCCCC1		inactive: 49.9% [at 12.7 µM]
CCOC(=O)c1cc2n(c1N)-c1ccccc1C2=O	inconclusive: 3.16 µM [inhibitor, partial curve]	
N#Cc1c(NC(=O)c2cc(C3CC3)on2)sc2c1CCC2	active: 39.8 µM	
COC(=O)C1=C(C)OC(N)=C(C#N)C1c1cccnc1 (stereo unspecified)	inconclusive: 3.16 µM [inhibitor, single point]	
CC(=O)Nc1ccc(N2C(=O)c3ccc(C(=O)Nc4nnc(SCc5ccc(F)cc5)s4)cc3C2=O)cc1	inconclusive: 22.4 µM [inhibitor, full curve, poor fit]	
CCCCOC(=O)n1ccc(C(=O)Nc2ccccc2OC)n1	inactive	
O=C1CC(N(O)c2ccccc2)C(=O)N1c1ccc(Cl)c(Cl)c1 (stereo unspecified)	active: 50.1 µM	
Cc1cc(S(=O)(=O)N2CCN(Cc3ccccc3)CC2)c(C)s1	inconclusive: 100 µM [inhibitor, single point]	
CCOc1ccc2nc(Cl)c(C3CC(c4ccco4)=NN3S(=O)(=O)c3ccccc3)cc2c1 (stereo unspecified)	inconclusive: 28.2 µM [inhibitor, single point]	
O=C(/C=C/c1ccco1)NCc1ccc(F)cc1	inconclusive: 28.2 µM [inhibitor, single point]	
CCn1cc(S(=O)(=O)N2CCN(Cc3cccc(Cl)c3)CC2)cn1	inconclusive: 70.8 µM [inhibitor, single point]	
Cc1ccc(S(=O)(=O)N2CCC(C(=O)NC3CC(C)(C)NC(C)(C)C3)CC2)cc1C	inactive	
CC(C)(C)NC(=O)CSc1nc2ccc(Nc3nc(N4CCOCC4)nc(N4CCOCC4)n3)cc2s1	inconclusive: 44.7 µM [inhibitor, partial curve]	
CCOC(=O)c1cc(-c2ccc(OC)cc2)n(CCC(=O)NCCN2CCC(C)CC2)c1C	inconclusive: 56.2 µM [inhibitor, partial curve, poor fit]	
COc1ccc(OCCNc2c([N+](=O)[O-])c(=O)oc3ccccc23)cc1	inconclusive: 79.4 µM [inhibitor, partial curve, poor fit]	
O=S(=O)(NCC1CCCO1)c1cc(Cl)ccc1Br (stereo unspecified)		inconclusive: -69.5% [inhibitor]
Cn1c(=O)c2c(nc(CN3CCc4ccccc4C3)n2Cc2cccc(Cl)c2)n(C)c1=O	active: 8.91 µM	
CN(C=[N+](C)C)c1cccc2c1C(=O)c1ccccc1C2=O	inconclusive: 28.2 µM [inhibitor, single point]	
COc1ccc(C(=O)N2CC(=O)Nc3ccc(Br)cc3C2c2ccc(F)cc2)cc1OC (stereo unspecified)	inactive	
Cc1nnc(NCCc2ccccc2)c2ccccc12	inconclusive: 89.1 µM [inhibitor, single point]	
COCCn1c(=O)[nH]c2cc(C(=O)Nc3cc(OC)c(OC)c(OC)c3)ccc2c1=O	inactive	
